Data from PubChem BioAssay AID1345082 (National Center for Advancing Translational Sciences (NCATS), 2018).
Several values for one entry are separate records, joined by “and”; a condition that tells them apart may be missing. Equal values may be shown once. The campaign covered roughly 94,000 compounds. About 4,000 (4.3%) were called active. The shares of active, inactive and inconclusive entries below differ from those in the screen. Calls follow the shape of the dose curve; as a rule, active = well fitted inhibition curve with a large enough effect; inconclusive = small, poorly fitted or top-dose-only effect; inactive = no such curve, though single readings can be large or run the other way. Potencies beside an inconclusive call are fits to weak or partial responses and may not hold up.

Experiment: Cytotoxic Profiling in NIH 3T3 Cell Line of Diverse Libraries Using Quantitative High-Throughput Screening; also: nearly all actives have a fitted effect of over 55% in size
Conditions: NIH 3T3 viability, CellTiter-Glo ATP luminescence, 48-72 h; series mostly up to 96.7 µM
How it was run: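 Cytotoxicity was measured by CellTiter-Glo ATP luminescence after 48 or 72 h compound exposure at 37 °C. Mouse NIH 3T3 fibroblasts were seeded at 400 cells/well and dosed by 23 nL pin transfer.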
Potency is read from the fitted curve at half-maximal effect; tags tell the direction and shape of the fitted curve.

| Structure (SMILES) | Potency |
| --- | --- |
| O=C(NCCCc1ccccc1)c1nc2sccn2c1-c1ccc(C(F)(F)F)cc1 | inconclusive: 31.6 µM [inhibitor, full curve] |
| CNC(=O)[C@@H](c1ccccc1F)N1CCC[C@H]1C(=O)N(C)Cc1ccccc1 | inconclusive: 56.2 µM [inhibitor, partial curve, poor fit] |
| FC(F)(F)c1ccccc1-c1ncc[nH]1 | inactive |
| C=CCNC(=O)N[C@H]1CO[C@H]2[C@@H]1OC[C@@H]2Nc1nccc(-c2cccc(F)c2)n1 | inconclusive: 89.1 µM [inhibitor, partial curve, poor fit] |
| Cc1nnc(-c2cc(-c3ccccc3Oc3ccccc3)ccn2)n1CCN1CCOCC1 | inconclusive: 44.7 µM [inhibitor, partial curve, poor fit] |
| COc1cccc(C(=O)N2CCC3(CC2)CCC(O)(CN(C)C)CC3)c1 | inactive |
| COc1ccccc1C(=O)N1CCC2(CC1)NC(=O)N(c1ccc(F)cc1)N2 | inconclusive: 44.7 µM [inhibitor, partial curve, poor fit] |
| COc1ccc(C(=O)N2CCC(N3C(=O)c4c(c(C)nn4-c4ccccc4)C3C3CC3)C2)cc1 (centres undefined) | inconclusive: 14.1 µM [inhibitor, full curve, poor fit] |
| COc1ccc2ccccc2c1CNC1CCN(c2ccc(C(=O)N3CCOCC3)cc2)CC1 | inactive |
| COC(=O)c1ccc(CN2C(=O)[C@@H]3C[C@@H](O)CN3C3(CN(Cc4ccccc4Cl)C3)C2=O)cc1 | inactive |
| Cc1nn2c(c1-c1ccnn1C(C)C)N(Cc1ccc3c(c1)CCO3)CCC2 | active: 31.6 µM |
| CCN(CCCNC(=O)CC1=C2CCCCC2N(C)C1=O)c1ccccc1 (centres undefined) | inactive |
| CCN1CCC2(Cc3ccccc3CN(C(=O)Cc3ccc(OC)cc3)C2)C1 (centres undefined) | inactive |
| C=CCn1cc2c3c(cccc31)[C@H](CC(C)C)N[C@H](C(=O)NCCN1CCOCC1)C2 | inconclusive: 100 µM [inhibitor, partial curve, poor fit] |
| O=C(Nc1cccc(F)c1)C1CN(C2CCCCC2)C(=O)N1 (centres undefined) | inconclusive: 89.1 µM [inhibitor, partial curve, poor fit] |
| Fc1ccc(Cc2nc3nccc(-c4ccc5c(c4)OCCCO5)n3n2)cc1 | inconclusive: 44.7 µM [inhibitor, partial curve, poor fit] |
| COc1ccccc1C(=O)N1CCC2(C1)C(=NC1CCCC1)NC(=O)N2c1cc(F)cc(F)c1 (centres undefined) | inactive |
| COc1cncc(NC(=O)C2=NO[C@@H]3CN(Cc4cccs4)C[C@H]23)c1 | inactive |
| Cn1c(CCNC(=O)C2(Cc3ccccc3)CCCCC(=O)N2)nc2ccccc21 (centres undefined) | inconclusive: 28.2 µM [inhibitor, full curve] |
| Cc1cc(-c2nn(-c3ccccc3F)cc2CN(C)C(C)c2ccon2)c(C)s1 (centres undefined) | inconclusive: 79.4 µM [inhibitor, partial curve, poor fit] |

| Structure (SMILES) | Potency |
| --- | --- |
| Cn1cc(-c2cnc3[nH]cc(CC(=O)NCC4CCOCC4)c3c2)cn1 | inconclusive: 100 µM [inhibitor, partial curve, poor fit] |
| CCOC(=O)c1ccc(Nc2nc(-c3ccccc3)no2)cc1 | inconclusive: 44.7 µM [inhibitor, partial curve, poor fit] |
| Cc1ccc(Nc2ccnc(N3CCC(C(=O)NC4CCCC4)CC3)n2)cc1 | active: 35.5 µM |
| COc1ccc(-c2cc(N3CCN(C(=O)c4ccc(Cl)cc4OC)CC3)n[nH]2)cc1 | inconclusive: 44.7 µM [inhibitor, partial curve, poor fit] |
| CO[C@H]1CN(C2CCN(C(=O)CC3CCCCC3)CC2)[C@H]1c1cccnc1 | inconclusive: 79.4 µM [inhibitor, partial curve, poor fit] |
| COc1cccc(C(=O)N2CCn3c(nn(-c4ccc(C)cc4)c3=O)C2)c1 | inconclusive: 63.1 µM [inhibitor, single point] |
| COc1cccc(OC)c1CN1CC(O)CN(C(=O)COc2ccccc2)CC1=O (centres undefined) | inconclusive: 56.2 µM [inhibitor, partial curve, poor fit] |
| COc1ccc(CCC(=O)N2CCC3(CC2)CC(Cc2nc(-c4cccnc4)no2)CCO3)cc1 (centres undefined) | inconclusive: 39.8 µM [inhibitor, partial curve] |
| COc1ccc(C(=O)N2CCC[C@H]2c2nc(-c3ccc(C)cc3)no2)cn1 | inconclusive: 44.7 µM [inhibitor, partial curve, poor fit] |
| CCOC(=O)C1=CN(CC(=O)Nc2cccc(Cl)c2)S(=O)(=O)N=C1C | inconclusive: 70.8 µM [inhibitor, single point] |
| CS(=O)(=O)c1ccc(CN2C[C@H](O)C[C@H]2c2nc(-c3ccc4c(c3)OCO4)no2)cc1 | inconclusive: 17.8 µM [inhibitor, full curve, poor fit] |
| c1cnc2[nH]cc(-c3nc4ccncc4[nH]3)c2c1 | inconclusive: 100 µM [inhibitor, partial curve] and inconclusive: 100 µM [inhibitor, partial curve, poor fit] |
| O=C(NCc1ccc(C(F)(F)F)cc1)C1(c2ccc(Cl)cc2)CCOCC1 | inconclusive: 50.1 µM [inhibitor, partial curve, poor fit] |
| COCc1cn([C@H]2CO[C@H]3[C@@H]2OC[C@@H]3NC(=O)c2ccc(C(F)(F)F)cc2)nn1 | inconclusive: 112 µM [inhibitor, single point] |
| Cc1nc(CN2Cc3nc(-c4ccccc4)ccc3OCC2=O)cs1 | inconclusive: 89.1 µM [inhibitor, partial curve, poor fit] |
| Cc1nn(Cc2ccccc2)c(C)c1[C@@H]1C=C[C@@H](NC(=O)NC(C)C)C1 | inconclusive: 70.8 µM [inhibitor, partial curve] |
| COc1ccc(-c2nc3cc(C(=O)NCc4ccccc4F)ccc3o2)cn1 | inactive |
| Cc1ccccc1-c1nc(-c2c(C)noc2C)cc2cc(CN(C)C)oc12 | active: 28.2 µM |
| Cn1ccc2cc(NCc3nnc(C(=O)N4CCC[C@@H]4CN4CCCC4)n3-c3ccccc3)ccc21 | inconclusive: 50.1 µM [inhibitor, partial curve, poor fit] |
